Data taken from US20170152300A1 (CSL, published 2017).

T1: recombinant Factor VIII (as described in Zollner et al 2013) (Homo sapiens (Human), UniProt P00451 20-2351)
T1 construct: also called FVIII
T1 sequence: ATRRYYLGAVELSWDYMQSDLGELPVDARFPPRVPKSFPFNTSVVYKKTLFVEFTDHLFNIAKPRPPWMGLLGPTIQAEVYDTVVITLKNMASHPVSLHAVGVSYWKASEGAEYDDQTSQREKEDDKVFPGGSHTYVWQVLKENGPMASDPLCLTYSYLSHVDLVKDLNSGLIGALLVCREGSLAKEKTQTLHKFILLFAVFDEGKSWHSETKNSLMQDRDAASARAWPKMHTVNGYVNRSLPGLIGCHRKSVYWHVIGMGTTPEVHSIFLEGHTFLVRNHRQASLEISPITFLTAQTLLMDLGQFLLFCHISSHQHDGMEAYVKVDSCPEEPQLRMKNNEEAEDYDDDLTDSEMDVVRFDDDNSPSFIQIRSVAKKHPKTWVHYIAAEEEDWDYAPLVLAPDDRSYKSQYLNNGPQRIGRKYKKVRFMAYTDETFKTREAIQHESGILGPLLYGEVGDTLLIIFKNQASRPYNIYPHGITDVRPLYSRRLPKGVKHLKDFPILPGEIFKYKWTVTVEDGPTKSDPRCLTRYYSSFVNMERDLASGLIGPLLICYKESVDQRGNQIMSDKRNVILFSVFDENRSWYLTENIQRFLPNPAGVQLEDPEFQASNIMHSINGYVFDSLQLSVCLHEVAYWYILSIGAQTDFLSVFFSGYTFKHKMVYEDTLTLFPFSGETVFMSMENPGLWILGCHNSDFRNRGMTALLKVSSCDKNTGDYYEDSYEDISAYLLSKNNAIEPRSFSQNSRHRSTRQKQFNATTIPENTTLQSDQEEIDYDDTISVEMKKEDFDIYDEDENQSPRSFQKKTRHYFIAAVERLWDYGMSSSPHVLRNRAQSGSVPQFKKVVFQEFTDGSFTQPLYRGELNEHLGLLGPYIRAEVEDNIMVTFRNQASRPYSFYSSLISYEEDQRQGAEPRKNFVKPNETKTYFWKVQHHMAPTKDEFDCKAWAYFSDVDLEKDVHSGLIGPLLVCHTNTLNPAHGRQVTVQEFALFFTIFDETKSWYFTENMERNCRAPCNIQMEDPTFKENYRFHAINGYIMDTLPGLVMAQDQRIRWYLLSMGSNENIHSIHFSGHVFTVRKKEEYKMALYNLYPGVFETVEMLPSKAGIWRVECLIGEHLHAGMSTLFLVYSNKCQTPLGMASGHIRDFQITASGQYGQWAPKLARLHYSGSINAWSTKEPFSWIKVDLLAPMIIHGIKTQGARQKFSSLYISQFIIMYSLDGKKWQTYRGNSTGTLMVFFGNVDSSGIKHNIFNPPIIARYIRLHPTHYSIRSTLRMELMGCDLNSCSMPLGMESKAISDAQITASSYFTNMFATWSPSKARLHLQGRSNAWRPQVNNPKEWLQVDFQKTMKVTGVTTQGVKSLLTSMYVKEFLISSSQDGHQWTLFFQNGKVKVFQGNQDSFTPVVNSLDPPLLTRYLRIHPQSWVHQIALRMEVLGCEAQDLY

B1: vWF-HSA dimer S764Y-S766Y (other)
chain: YLYCRPPMVKLVCPADNLRAEGLECTKTCQNYDLECMSMGCVSGCLCPPGMVRHENRCVALERCPCFHQGKEYAPGETVKIGCNTCVCRDRKWNCTDHVCDATCSTIGMAHYLTFDGLKYLFPGECQYVLVQDYCGSNPGTFRILVGNKGCSHPSVKCKKRVTILVEGGEIELFDGEVNVKRPMKDETHFEVVESGRYIILLLGKALSVVWDRHLSISVVLKQTYQEKVCGLCGNFDGIQNNDLTSSNLQVEEDPVDFGNSWKVSSQCADTRKVPLDSSPATCHNNIMKQTMVDSSCRILTSDVFQDCNKLVDPEPYLDVCIYDTCSCESIGDCACFCDTIAAYAHVCAQHGKVVTWRTATLCPQSCEERNLRENGYECEWRYNSCAPACQVTCQHPEPLACPVQCVEGCHAHCPPGKILDELLQTCVDPEDCPVCEVAGRRFASGKKVTLNPSDPEHCQICHCDVVNLTCEACQEPGG[about 600 residues skipped]
B2: vWF-HSA dimer S766W-S806A (other)
chain: SLWCRPPMVKLVCPADNLRAEGLECTKTCQNYDLECMSMGCVAGCLCPPGMVRHENRCVALERCPCFHQGKEYAPGETVKIGCNTCVCRDRKWNCTDHVCDATCSTIGMAHYLTFDGLKYLFPGECQYVLVQDYCGSNPGTFRILVGNKGCSHPSVKCKKRVTILVEGGEIELFDGEVNVKRPMKDETHFEVVESGRYIILLLGKALSVVWDRHLSISVVLKQTYQEKVCGLCGNFDGIQNNDLTSSNLQVEEDPVDFGNSWKVSSQCADTRKVPLDSSPATCHNNIMKQTMVDSSCRILTSDVFQDCNKLVDPEPYLDVCIYDTCSCESIGDCACFCDTIAAYAHVCAQHGKVVTWRTATLCPQSCEERNLRENGYECEWRYNSCAPACQVTCQHPEPLACPVQCVEGCHAHCPPGKILDELLQTCVDPEDCPVCEVAGRRFASGKKVTLNPSDPEHCQICHCDVVNLTCEACQEPGG[about 600 residues skipped]
B3: vWF-HSA dimer S766Y (other)
chain: SLYCRPPMVKLVCPADNLRAEGLECTKTCQNYDLECMSMGCVSGCLCPPGMVRHENRCVALERCPCFHQGKEYAPGETVKIGCNTCVCRDRKWNCTDHVCDATCSTIGMAHYLTFDGLKYLFPGECQYVLVQDYCGSNPGTFRILVGNKGCSHPSVKCKKRVTILVEGGEIELFDGEVNVKRPMKDETHFEVVESGRYIILLLGKALSVVWDRHLSISVVLKQTYQEKVCGLCGNFDGIQNNDLTSSNLQVEEDPVDFGNSWKVSSQCADTRKVPLDSSPATCHNNIMKQTMVDSSCRILTSDVFQDCNKLVDPEPYLDVCIYDTCSCESIGDCACFCDTIAAYAHVCAQHGKVVTWRTATLCPQSCEERNLRENGYECEWRYNSCAPACQVTCQHPEPLACPVQCVEGCHAHCPPGKILDELLQTCVDPEDCPVCEVAGRRFASGKKVTLNPSDPEHCQICHCDVVNLTCEACQEPGG[about 600 residues skipped]
B4: vWF-HSA dimer S766Y-P769K (other)
chain: SLYCRKPMVKLVCPADNLRAEGLECTKTCQNYDLECMSMGCVSGCLCPPGMVRHENRCVALERCPCFHQGKEYAPGETVKIGCNTCVCRDRKWNCTDHVCDATCSTIGMAHYLTFDGLKYLFPGECQYVLVQDYCGSNPGTFRILVGNKGCSHPSVKCKKRVTILVEGGEIELFDGEVNVKRPMKDETHFEVVESGRYIILLLGKALSVVWDRHLSISVVLKQTYQEKVCGLCGNFDGIQNNDLTSSNLQVEEDPVDFGNSWKVSSQCADTRKVPLDSSPATCHNNIMKQTMVDSSCRILTSDVFQDCNKLVDPEPYLDVCIYDTCSCESIGDCACFCDTIAAYAHVCAQHGKVVTWRTATLCPQSCEERNLRENGYECEWRYNSCAPACQVTCQHPEPLACPVQCVEGCHAHCPPGKILDELLQTCVDPEDCPVCEVAGRRFASGKKVTLNPSDPEHCQICHCDVVNLTCEACQEPGG[about 600 residues skipped]
B5: vWF-HSA dimer S766Y-P769R (other)
chain: SLYCRRPMVKLVCPADNLRAEGLECTKTCQNYDLECMSMGCVSGCLCPPGMVRHENRCVALERCPCFHQGKEYAPGETVKIGCNTCVCRDRKWNCTDHVCDATCSTIGMAHYLTFDGLKYLFPGECQYVLVQDYCGSNPGTFRILVGNKGCSHPSVKCKKRVTILVEGGEIELFDGEVNVKRPMKDETHFEVVESGRYIILLLGKALSVVWDRHLSISVVLKQTYQEKVCGLCGNFDGIQNNDLTSSNLQVEEDPVDFGNSWKVSSQCADTRKVPLDSSPATCHNNIMKQTMVDSSCRILTSDVFQDCNKLVDPEPYLDVCIYDTCSCESIGDCACFCDTIAAYAHVCAQHGKVVTWRTATLCPQSCEERNLRENGYECEWRYNSCAPACQVTCQHPEPLACPVQCVEGCHAHCPPGKILDELLQTCVDPEDCPVCEVAGRRFASGKKVTLNPSDPEHCQICHCDVVNLTCEACQEPGG[about 600 residues skipped]
B6: vWF-HSA dimer S766Y-S769N (other)
chain: SLYCRNPMVKLVCPADNLRAEGLECTKTCQNYDLECMSMGCVSGCLCPPGMVRHENRCVALERCPCFHQGKEYAPGETVKIGCNTCVCRDRKWNCTDHVCDATCSTIGMAHYLTFDGLKYLFPGECQYVLVQDYCGSNPGTFRILVGNKGCSHPSVKCKKRVTILVEGGEIELFDGEVNVKRPMKDETHFEVVESGRYIILLLGKALSVVWDRHLSISVVLKQTYQEKVCGLCGNFDGIQNNDLTSSNLQVEEDPVDFGNSWKVSSQCADTRKVPLDSSPATCHNNIMKQTMVDSSCRILTSDVFQDCNKLVDPEPYLDVCIYDTCSCESIGDCACFCDTIAAYAHVCAQHGKVVTWRTATLCPQSCEERNLRENGYECEWRYNSCAPACQVTCQHPEPLACPVQCVEGCHAHCPPGKILDELLQTCVDPEDCPVCEVAGRRFASGKKVTLNPSDPEHCQICHCDVVNLTCEACQEPGG[about 600 residues skipped]
notes: printed 'S766Y-S769N', read as S766Y/P769N

Legend:
[1] = target: T1, recombinant Factor VIII (as described …); assay: SPR, anti-HSA capture, pH 7.3
Experimental: (§1) Mouse anti-HSA antibody was immobilized on a CMS chip using standard NHS/EDC coupling chemistry. Typically, the immobilization level was between 10,000 and 12,000 RU. Each batch of vWF-HSA (monomers and dimers) was captured on a single spot in each flow cell for 2 minutes at various concentrations ranging from 0.1-1 μg/ml. Capture levels ranged from 40-150RU. An adjacent spot in which anti-vWF was immobilized, but no vWF-HSA captured was used as a reference. Capture was performed every cycle, before FVIII binding analysis.
(§2) FVIII was injected at random and in duplicate over all spots in all flow cells at varying concentrations depending on the affinity of the interaction and the pH of the analysis. The association and dissociation of FVIII was monitored for various time frames that best suited the interaction taking place.
(§3) Post the dissociation period the surface was regenerated with a 30 second injection of 25 mM Glycine pH2.6. Running buffer throughout was 10 mM HEPES, 150 mM NaCl, 10 mM Na Citrate, 2.5 mM CaCl₂, 0.1% BSA, pH7.3 and pH5, while the flow rate was 30 μl/min. Each interaction was measured 4 times (n=4) at 37° C.

[2] = target: T1, recombinant Factor VIII (as described …); assay: SPR, anti-HSA capture, pH 5.5
Experimental: as §1, §2, §3

Binder | Kd [1] | koff [1] | kon [1] | Kd [2] | koff [2] | kon [2]
B1 | 0.0307 nM | 0.000334 s⁻¹ | 1.14e+07 M⁻¹ s⁻¹ | 1.07 nM | 0.00345 s⁻¹ | 3.22e+06 M⁻¹ s⁻¹
B2 | 0.0354 nM | 0.0003 s⁻¹ | 8.88e+06 M⁻¹ s⁻¹ | 14.3 nM | 0.014 s⁻¹ | 813000 M⁻¹ s⁻¹
B3 | 0.0251 nM | 0.000236 s⁻¹ | 1.03e+07 M⁻¹ s⁻¹ | 2.92 nM | 0.0074 s⁻¹ | 3.5e+06 M⁻¹ s⁻¹
B4 | 0.0268 nM | 0.000285 s⁻¹ | 1.09e+07 M⁻¹ s⁻¹ | 1.79 nM | 0.0074 s⁻¹ | 4.14e+06 M⁻¹ s⁻¹
B5 | 0.0232 nM | 0.000275 s⁻¹ | 1.18e+07 M⁻¹ s⁻¹ | 1.4 nM | 0.00654 s⁻¹ | 4.66e+06 M⁻¹ s⁻¹
B6 | 0.0289 nM | 0.000348 s⁻¹ | 1.21e+07 M⁻¹ s⁻¹ | 5.01 nM | 0.0102 s⁻¹ | 2.05e+06 M⁻¹ s⁻¹
